Measured values from PubChem BioAssay AID624417 (National Center for Advancing Translational Sciences (NCATS), 2012).
The whole screen tested about 410,000 compounds, of which about 6,400 (1.6%) were called active. Inconclusive means that the source gave no clear call. Such entries were picked first, then a sample of the others. The call rests on the fitted dose curve; in most records, active means well fitted inhibition curve with a large enough effect; inconclusive means small, poorly fitted or top-dose-only effect; inactive means no such curve, though single readings can be large or run the other way. Potencies beside an inconclusive call are fits to weak or partial responses and may not hold up.

molecular target: Glucagon-like peptide 1 receptor (Homo sapiens) (UniProt P43220); experiment: qHTS of GLP-1 Receptor Inverse Agonists (Inhibition Mode); settings: HEK293 GLP-1R CRE-luciferase, luminescence, 24 h, GLP-1R form is constitutively active; activity change, negative = inhibition: at 38.3 µM (top of the series) unless noted; further: nearly all actives have a fitted effect of over 55% in size
Outline: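 Inverse agonism was detected as reduced cAMP-driven luciferase luminescence after 24 h compound treatment. The cells were HEK293 clones expressing constitutively active human GLP-1R with the reporter. Reporter-only and GPR119 cell lines served as counterscreen controls.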
On the % scale 0 is the no-effect control and ±100 the full control effect; potency means the concentration at half of the fitted maximal effect; tags describe the fitted curve by direction and shape.

Sequence of UniProt P43220 (P43220 whole entry, looked up): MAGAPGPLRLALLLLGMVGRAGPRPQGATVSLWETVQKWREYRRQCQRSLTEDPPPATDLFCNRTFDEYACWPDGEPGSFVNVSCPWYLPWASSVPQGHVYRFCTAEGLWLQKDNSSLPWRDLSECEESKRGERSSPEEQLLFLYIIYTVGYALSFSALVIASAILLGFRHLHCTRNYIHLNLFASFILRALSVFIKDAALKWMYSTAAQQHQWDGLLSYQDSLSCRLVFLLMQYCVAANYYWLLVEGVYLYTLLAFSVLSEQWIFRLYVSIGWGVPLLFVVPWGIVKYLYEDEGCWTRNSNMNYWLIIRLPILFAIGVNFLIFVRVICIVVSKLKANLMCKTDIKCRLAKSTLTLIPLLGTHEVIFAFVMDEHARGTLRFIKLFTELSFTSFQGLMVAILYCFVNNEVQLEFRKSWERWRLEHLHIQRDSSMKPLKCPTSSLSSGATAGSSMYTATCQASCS

Potency, active:
S=C(Nc1ccc(Nc2ccccc2)cc1)NC1CCCCCC1 5.01 µM

Potency, inactive:
COc1ccc(NS(=O)(=O)c2ccc3c(c2)[C@H]2C=CC[C@H]2[C@@H](c2ccc(C(=O)O)cc2)N3)cc1

Potency, inconclusive:
O=C(Cc1coc2cc(O)ccc12)N1CCN(S(=O)(=O)c2ccc(Br)cc2)CC1 25.1 µM [inhibitor, single point]
COc1ccc(N2C(=O)CSC23C(=O)N(Cc2cccc(C(F)(F)F)c2)c2ccccc23)cc1 (stereo not drawn) 11.2 µM [inhibitor, single point]
CC(C)(C)[C@@H]1C=C(C(=O)N2CCN(Cc3ccccc3)CC2)O[C@H](OCc2ccc(CO)cc2)C1 15.8 µM [inhibitor, partial curve, poor fit]
COc1cc(C(O)c2nc(-c3ccccc3C)cs2)ccc1F (stereo not drawn) 28.2 µM [inhibitor, single point]
O=C(c1ccccc1)C(O)(Cc1ccccc1)c1ccccc1 (stereo not drawn) 28.2 µM [inhibitor, single point]
Cc1ncc(CO)c2c1Oc1nc(-c3ccccc3)nc(SCC(=O)N3CCOCC3)c1C2 11.2 µM [inhibitor, single point]
Cn1nc(-c2ccccc2)c(C#N)c1Sc1cccc(Cl)c1 10 µM [inhibitor, partial curve]
O=C(Nc1cccc(Cl)c1)C1CC1c1ccccc1 (stereo not drawn) 8.91 µM [inhibitor, partial curve, poor fit]
CCc1cc(-c2nnn(CCC3COCCO3)c2CC)ccc1-c1cn(CCc2c[nH]c3ccccc23)nn1 (stereo not drawn) 20 µM [inhibitor, partial curve, poor fit]
CCN1CC(c2ccccc2)C(c2ccc(Cl)cc2)=N1 (stereo not drawn) 20 µM [inhibitor, single point]
CCN(CC)CCNCc1ccc(-c2ccc(Cl)cc2)o1 7.08 µM [inhibitor, partial curve, poor fit]
CC1CCCCC12NC(=O)N(CC(=O)OCc1ccc(Br)cc1)C2=O (stereo not drawn) 14.1 µM [inhibitor, partial curve, poor fit]
Cc1ccc(Cl)cc1N1CCN(C(=O)c2noc3c2CCCC3)CC1 28.2 µM [inhibitor, single point]
O=S(=O)(N/N=C/c1ccccc1OCc1ccc(Cl)cc1)c1ccccc1 28.2 µM [inhibitor, single point]
O=S(=O)(Nc1cccc2ccccc12)c1ccccc1 28.2 µM [inhibitor, single point]
COc1ccc(OC)c(NC(=O)Cn2cc(C#N)c3cc(Br)ccc32)c1 11.2 µM [inhibitor, partial curve, poor fit]
CC/C(=N\NC(=O)c1ccc(CN(C)S(=O)(=O)c2ccc(C)cc2)cc1)c1ccc(OC(F)F)cc1 28.2 µM [inhibitor, single point]
Cc1cccc(NC(=O)c2ccc(C)c(S(=O)(=O)N3CCCCC3)c2)n1 31.6 µM [inhibitor, single point]
CC(C)CCCN1C(Nc2ccccc2)=NC[C@@H]1Cc1ccccc1 28.2 µM [inhibitor, single point]
COc1cc2c(cc1OC)C(c1cc(Br)ccc1F)N(C(=O)CCl)CC2 (stereo not drawn) 14.1 µM [inhibitor, partial curve, poor fit]
CCN(CC(=O)c1c(N)n(C)c(=O)n(C)c1=O)c1cccc2ccccc12 28.2 µM [inhibitor, single point]
NC(=O)NC(=O)C(c1ccccc1)N1CCN(S(=O)(=O)c2ccc(Br)s2)CC1 (stereo not drawn) 10 µM [inhibitor, partial curve, poor fit]
CCOC(=O)/C=c1\s/c(=C\c2ccccc2C)c(=O)n1CC(=O)NCc1ccc2c(c1)OCO2 22.4 µM [inhibitor, single point]
CCOc1ccc(NC(=O)[C@@H](c2ccccc2)N2Cc3ccccc3C2=O)cc1 11.2 µM [inhibitor, partial curve, poor fit]
c1ccc(NN=C(c2ccccc2)c2cccs2)cc1 28.2 µM [inhibitor, single point]
O=C(CSc1nnc(N2CCCC2)n1-c1ccccc1Cl)N1CCN(c2ccccn2)CC1 10 µM [inhibitor, partial curve]
Cc1ccccc1Nc1nc(CSc2nnc(-c3ccoc3C)n2C)cs1 5.01 µM [inhibitor, full curve]
O=C1C=C(NCc2ccccc2)c2ccccc2C1=O 10 µM [inhibitor, single point]
C=CS(=O)(=O)c1c2cc(OC)ccc2nc2ccc(OC)cc12 14.1 µM [inhibitor, single point]
O=C(c1nn2c(C(F)(F)F)cc(-c3cccs3)nc2c1Br)N1CCCc2ccccc21 6.31 µM [inhibitor, partial curve, poor fit]
COc1cccc(COC(=O)c2cc(S(=O)(=O)N3CCOCC3)ccc2Cl)c1OC 11.2 µM [inhibitor, partial curve, poor fit]
COC(=O)[C@@]12C[C@@H](CC(=O)NCc3ccccc3)C(=O)N(Cc3cccc4ccccc34)C1=CCC(C)(C)C2 11.2 µM [inhibitor, partial curve, poor fit]
Cc1ccc(C(=O)N(NC2=NS(=O)(=O)c3ccccc32)S(=O)(=O)c2ccc(C)cc2)cc1 0.501 µM [inhibitor, full curve, poor fit]
Cc1ccc(C(=O)OCC(=O)N2CCC(Cc3ccccc3)CC2)cc1N 35.5 µM [inhibitor, partial curve, poor fit]
CCn1cc(CN2CCN(Cc3ccc(C)o3)C(CCO)C2)c2ccccc21 (stereo not drawn) 31.6 µM [inhibitor, partial curve, poor fit]
COc1cc2c(C(=O)N3CCN(c4cccc(Cl)c4)CC3)cn(CC(C)C)c(=O)c2cc1OC 10 µM [inhibitor, partial curve, poor fit]
O=C1CN(C(=O)Cc2ccccc2)C(c2ccc(F)cc2)c2cc(Br)ccc2N1 (stereo not drawn) 28.2 µM [inhibitor, single point]
Cc1cc(S(=O)(=O)Nc2ccc3oc4c(c3c2)CCCC4)ccc1Cl 14.1 µM [inhibitor, single point]
COc1ccc(CCNC(=O)C(=O)NCC2CCCN2S(=O)(=O)c2ccc(OC)cc2)cc1 (stereo not drawn) 31.6 µM [inhibitor, single point]
CCOC(=O)c1c(C)[nH]c(C(=O)N/N=C/c2ccc(Br)cc2)c1C 1 µM [inhibitor, full curve, poor fit]
COCCNS(=O)(=O)c1cc2[nH]c3c(c2cc1C)C(=O)CC(C)(C)C3 7.94 µM [inhibitor, partial curve, poor fit]
COc1ccc(C)cc1-n1c(SCC(=O)Nc2cccc(C(=O)O)c2)nc2ccccc2c1=O 1.12 µM [inhibitor, full curve, poor fit]
CSc1cccc(NC(=O)/C=C/c2ccccc2)c1 28.2 µM [inhibitor, partial curve, poor fit]
CCc1ccccc1N(C(C)=O)c1nc(CN=C=S)cs1 15.8 µM [inhibitor, partial curve, poor fit]
CCN(Cc1ccc(NC(C)=O)cc1)CC1CCCN(CCc2cccc(OC)c2)C1 (stereo not drawn) 17.8 µM [inhibitor, partial curve, poor fit]
COc1cc(C(=O)N2CCN(c3cccc(C)c3C)CC2)cc(OC)c1OC 0.891 µM [inhibitor, full curve]
COc1cc(C2(c3ccc(O)c(OC)c3)C(=O)N(C)c3ccc(C)cc32)ccc1O 20 µM [inhibitor, single point]
Fc1ccccc1CSc1nc2ccccc2[nH]1 15.8 µM [inhibitor, single point]
Cc1cc(/C=C(\C#N)C(N)=O)c(C)n1-c1ccc(N2CCOCC2)c([N+](=O)[O-])c1 2.82 µM [inhibitor, single point]

Activity change, negative = inhibition, inactive:
S=C(NCC1CCCO1)NC1CCCCC1 (stereo not drawn) -0.94%
COc1ccc(Cl)cc1NC(=O)Cn1nnc2sc(-c3ccccc3)cc2c1=O -3.7%
O=C(O)C1CCN(S(=O)(=O)c2cccc3cccnc23)CC1 9.73%
CCc1ccccc1NC(=O)CN(C)Cc1c(O)ccc2ccccc12 -22.8%
Oc1ccc(-c2cn3c(n2)SCC3)cc1O 64.9%
CCOC(=O)c1cc2c(=O)n3ccccc3nc2n(Cc2ccco2)c1=NC(=O)c1cccc(Br)c1 14.4%
O=C(CSc1ccccn1)N/N=C/C=C/c1ccccc1 16.2%
CCCNC(=O)CCC(NS(=O)(=O)c1ccc(C)cc1)C(=O)NCCC (stereo not drawn) -9.64%
CSc1nsc(/C=C/Nc2ccc(O)cc2C)c1C#N 12.6%
CCOc1ccc(N2CC(O)(c3cccs3)[N+]3=C2CCCC3)cc1 (stereo not drawn) -44.9%
COCCNC(=O)c1cn(Cc2c(F)cccc2Cl)nn1 -0.0861%

Activity change, negative = inhibition, inconclusive:
COc1ccc(C(O)(CCN2CCCCC2)C2CCCCC2)cc1 (stereo not drawn) -72.7% [inhibitor]
